Reference: the supplement of paper PMC4604168 (melanoma cell lines)
The list shows a part of the results. Most values come without repeats; read them as rough.

System: A375
Assay: cell count relative to DMSO control; melanoma cells; higher = more viable cells
Details: library dose: low library concentration; 72 h
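Further: cell number obtained by counting DAPI-stained nuclei in high-throughput microscope images with image analysis software, screen run in 1,536-well plates.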

SMILES | cell count [%]
COc1ccc(C2=N[C@@H](c3ccc(Cl)cc3)[C@@H](c3ccc(Cl)cc3)N2C(=O)N2CCNC(=O)C2)c(OC(C)C)c1 [Nutlin-3] + C=C(c1ccc(C(=O)O)cc1)c1cc2c(cc1C)C(C)(C)CCC2(C)C [Bexarotene] (first compound 0.1 µM, partner dose 2 µM) | 114
Cc1cc(Nc2cc(N3CCN(C)CC3)nc(/C=C/c3ccccc3)n2)n[nH]1 + Cc1nc(Nc2ncc(C(=O)Nc3c(C)cccc3Cl)s2)cc(N2CCN(CCO)CC2)n1 [dasatanib] (first compound 0.04 µM, partner dose 0.004 µM) | 86.9
Cc1cn(-c2cc(NC(=O)c3ccc(C)c(Nc4nccc(-c5cccnc5)n4)c3)cc(C(F)(F)F)c2)cn1 [nilotinib] + CC(=O)O[C@@]12CO[C@@H]1C[C@H](O)[C@@]1(C)C(=O)[C@H](O)C3=C(C)[C@@H](OC(=O)[C@H](O)[C@@H](NC(=O)OC(C)(C)C)c4ccccc4)C[C@@](O)([C@@H](OC(=O)c4ccccc4)[C@H]21)C3(C)C [Docetaxel] (first compound 0.2 µM, partner dose 0.0001 µM) | 24.3
Cn1c(=O)n(-c2ccc(C(C)(C)C#N)cc2)c2c3cc(-c4cnc5ccccc5c4)ccc3ncc21 + CO[C@H]1C[C@@H]2CC[C@@H](C)[C@@](O)(O2)C(=O)C(=O)N2CCCC[C@H]2C(=O)O[C@H]([C@H](C)C[C@@H]2CC[C@@H](OCCO)[C@H](OC)C2)CC(=O)[C@H](C)/C=C(\C)[C@@H](O)[C@@H](OC)C(=O)[C@H](C)C[C@H](C)/C=C/C=C/C=C/1C [everolimus] (first compound 0.004 µM, partner dose 0.02 µM) | 32.9
COc1ccc(C2=N[C@@H](c3ccc(Cl)cc3)[C@@H](c3ccc(Cl)cc3)N2C(=O)N2CCNC(=O)C2)c(OC(C)C)c1 [Nutlin-3] + C[C@]1(c2nc3c(C(N)=O)cccc3[nH]2)CCCN1 [Veliparib] (first compound 0.1 µM, partner dose 1.4 µM) | 55.4
COc1ccc(C2=N[C@@H](c3ccc(Cl)cc3)[C@@H](c3ccc(Cl)cc3)N2C(=O)N2CCNC(=O)C2)c(OC(C)C)c1 [Nutlin-3] + Nc1cccc2c1CN(C1CCC(=O)NC1=O)C2=O [lenalidomide] (first compound 0.1 µM, partner dose 1 µM) | 87.7
CC(C)C[C@H](NC(=O)[C@H](Cc1ccccc1)NC(=O)c1cnccn1)B(O)O [Bortezomib] + O=C(O)[C@@H]1[O][Sb](=[O])([O][Sb]2(=[O])[O][C@H]([C@H](O)CO)[C@H](O)[C@H](C(=O)O)[O]2)[O][C@H]([C@H](O)CO)[C@@H]1O [stibogluconate] (first compound 0.001 µM, partner dose 2 µM) | 101
COc1ccc(C2=N[C@@H](c3ccc(Cl)cc3)[C@@H](c3ccc(Cl)cc3)N2C(=O)N2CCNC(=O)C2)c(OC(C)C)c1 [Nutlin-3] + Nc1ccn([C@@H]2O[C@H](CO)[C@@H](O)C2(F)F)c(=O)n1 [gemcitabine] (first compound 0.1 µM, partner dose 0.0004 µM) | 87.3
Cc1cc(Nc2cc(N3CCN(C)CC3)nc(/C=C/c3ccccc3)n2)n[nH]1 + CCCS(=O)(=O)Nc1ccc(F)c(C(=O)c2c[nH]c3ncc(Cl)cc23)c1F [PLX4720] (first compound 0.04 µM, partner dose 0.08 µM) | 85.9
Cn1c(=O)n(-c2ccc(C(C)(C)C#N)cc2)c2c3cc(-c4cnc5ccccc5c4)ccc3ncc21 + COc1ccc(Cl)c(Nc2nc3ccccc3nc2NS(=O)(=O)c2cccc(NC(=O)C(C)(C)N)c2)c1 [XL147] (first compound 0.004 µM, partner dose 0.8 µM) | 94.2
Cc1cn(-c2cc(NC(=O)c3ccc(C)c(Nc4nccc(-c5cccnc5)n4)c3)cc(C(F)(F)F)c2)cn1 [nilotinib] + NC(=O)c1ccc(N(C(N)=O)c2c(F)cccc2F)nc1-c1ccc(F)cc1F [VX702] (first compound 0.2 µM, partner dose 0.4 µM) | 103
Cc1cn(-c2cc(NC(=O)c3ccc(C)c(Nc4nccc(-c5cccnc5)n4)c3)cc(C(F)(F)F)c2)cn1 [nilotinib] + O=C(O)c1ccc2c(c1)nc(Nc1cccc(Cl)c1)c1ccncc12 [CX4945] (first compound 0.2 µM, partner dose 0.4 µM) | 114
Cc1cn(-c2cc(NC(=O)c3ccc(C)c(Nc4nccc(-c5cccnc5)n4)c3)cc(C(F)(F)F)c2)cn1 [nilotinib] + C[C@]1(O)C[C@@H](c2nc(-c3ccc4ccc(-c5ccccc5)nc4c3)c3c(N)nccn32)C1 [OSI906] (first compound 0.2 µM, partner dose 0.4 µM) | 59.3
CC(C)C[C@H](NC(=O)[C@H](Cc1ccccc1)NC(=O)c1cnccn1)B(O)O [Bortezomib] + Nc1nc(F)nc2c1ncn2[C@@H]1O[C@H](CO)[C@@H](O)[C@@H]1O [fludarabine] (first compound 0.001 µM, partner dose 0.2 µM) | 21.8
COc1ccc(C2=N[C@@H](c3ccc(Cl)cc3)[C@@H](c3ccc(Cl)cc3)N2C(=O)N2CCNC(=O)C2)c(OC(C)C)c1 [Nutlin-3] + CNC(=O)c1cc(Oc2ccc(NC(=O)Nc3ccc(Cl)c(C(F)(F)F)c3)cc2)ccn1 [sorafenib] (first compound 0.1 µM, partner dose 0.4 µM) | 111
COc1ccc(C2=N[C@@H](c3ccc(Cl)cc3)[C@@H](c3ccc(Cl)cc3)N2C(=O)N2CCNC(=O)C2)c(OC(C)C)c1 [Nutlin-3] + COCC[n+]1c2c(n(Cc3cnccn3)c1C)C(=O)c1ccccc1C2=O [YM155] (first compound 0.1 µM, partner dose 0.0004 µM) | 115
COc1ccc(C2=N[C@@H](c3ccc(Cl)cc3)[C@@H](c3ccc(Cl)cc3)N2C(=O)N2CCNC(=O)C2)c(OC(C)C)c1 [Nutlin-3] + Nc1nc(F)nc2c1ncn2[C@@H]1O[C@H](CO)[C@@H](O)[C@@H]1O [fludarabine] (first compound 0.1 µM, partner dose 0.2 µM) | 15.7
COc1ccc(C2=N[C@@H](c3ccc(Cl)cc3)[C@@H](c3ccc(Cl)cc3)N2C(=O)N2CCNC(=O)C2)c(OC(C)C)c1 [Nutlin-3] + CC(C)C[C@H](NC(=O)[C@H](Cc1ccccc1)NC(=O)c1cnccn1)B(O)O [Bortezomib] (first compound 0.1 µM, partner dose 0.001 µM) | 78.9
CC(C)C[C@H](NC(=O)[C@H](Cc1ccccc1)NC(=O)c1cnccn1)B(O)O [Bortezomib] + CNC(=O)c1cc(Oc2ccc(NC(=O)Nc3ccc(Cl)c(C(F)(F)F)c3)cc2)ccn1 [sorafenib] (first compound 0.001 µM, partner dose 0.4 µM) | 97.8
Cc1cc(Nc2cc(N3CCN(C)CC3)nc(/C=C/c3ccccc3)n2)n[nH]1 + Nc1ccn([C@@H]2O[C@H](CO)[C@@H](O)C2(F)F)c(=O)n1 [gemcitabine] (first compound 0.04 µM, partner dose 0.0004 µM) | 84.3
CC(C)C[C@H](NC(=O)[C@H](Cc1ccccc1)NC(=O)c1cnccn1)B(O)O [Bortezomib] + Cc1nc(Nc2ncc(C(=O)Nc3c(C)cccc3Cl)s2)cc(N2CCN(CCO)CC2)n1 [dasatanib] (first compound 0.001 µM, partner dose 0.004 µM) | 90.7
COc1ccc(C2=N[C@@H](c3ccc(Cl)cc3)[C@@H](c3ccc(Cl)cc3)N2C(=O)N2CCNC(=O)C2)c(OC(C)C)c1 [Nutlin-3] + C[C@@H](Oc1cc(-c2cnn(C3CCNCC3)c2)cnc1N)c1c(Cl)ccc(F)c1Cl [Crizotinib] (first compound 0.1 µM, partner dose 0.2 µM) | 126
COc1ccc(C2=N[C@@H](c3ccc(Cl)cc3)[C@@H](c3ccc(Cl)cc3)N2C(=O)N2CCNC(=O)C2)c(OC(C)C)c1 [Nutlin-3] + OCc1c[nH]c2ccccc12 [Indole-3-carbinol] (first compound 0.1 µM, partner dose 0.8 µM) | 109
COc1ccc(C2=N[C@@H](c3ccc(Cl)cc3)[C@@H](c3ccc(Cl)cc3)N2C(=O)N2CCNC(=O)C2)c(OC(C)C)c1 [Nutlin-3] + CS(=O)(=O)CCNCc1ccc(-c2ccc3ncnc(Nc4ccc(OCc5cccc(F)c5)c(Cl)c4)c3c2)o1 [lapatinib] (first compound 0.1 µM, partner dose 0.8 µM) | 127
Cc1cn(-c2cc(NC(=O)c3ccc(C)c(Nc4nccc(-c5cccnc5)n4)c3)cc(C(F)(F)F)c2)cn1 [nilotinib] + CC(=O)c1c(C)c2cnc(Nc3ccc(N4CCNCC4)cn3)nc2n(C2CCCC2)c1=O [palbociclib] (first compound 0.2 µM, partner dose 0.04 µM) | 66.9
Cc1cn(-c2cc(NC(=O)c3ccc(C)c(Nc4nccc(-c5cccnc5)n4)c3)cc(C(F)(F)F)c2)cn1 [nilotinib] + CCN(CC)CCNC(=O)c1c(C)[nH]c(/C=C2\C(=O)Nc3ccc(F)cc32)c1C [sunitinib] (first compound 0.2 µM, partner dose 0.4 µM) | 109
